Laboratory results reported in PubChem BioAssay AID504339 (National Center for Advancing Translational Sciences (NCATS), 2011).
Among all 390,000 compounds or so, about 17,000 (4.4%) were called active. Inconclusive results, whose numbers are uncertain, are shown with a selection of clear calls. Calls follow the shape of the dose curve; as a rule, active = well fitted inhibition curve with a large enough effect; inconclusive = small, poorly fitted or top-dose-only effect; inactive = no such curve, though single readings can be large or run the other way. Potencies of inconclusive entries are doubtful fits and often do not repeat.

Biological target: Lysine-specific demethylase 4A (Homo sapiens) (UniProt O75164)
Assay: qHTS Assay for Inhibitors of JMJD2A-Tudor Domain; also: nearly all actives have a fitted effect of over 50% in size
Conditions: AlphaScreen JMJD2A-Tudor / H3K4me3 peptide binding; series mostly up to 114 µM
From the text: JMJD2A is a jumonji-domain-containing lysine demethylase that uses Fe(II) together with 2-OG to effect oxidative demethylation of histones. Methylation is one of many […] modification that affect epigenetic transcription. […] It is proposed that the functions of JmjD2A binding to the histones, is to maintain marks after they are installed and to spread the modifications by […], establishing a self-propagating cycle for rapid methylation over a large area of chromatin. […] Thus, small molecule targeting of the JMJD2A-tudor domain interaction with its target methylhistone mark is expected to enable sophisticated experiments probing the fine regulatory pathways leading to selective demethylation of a given methyllysine locus based on the methylation state of adjacent histone marks. A quantitative high throughput AlphaScreen has been developed to identify small molecule inhibitors based on a protocol published by NCGC and SGC [4].
Although AlphaScreen has significant advantages with its utility in a variety of epigenetic target assays, the primary screening data provided in this deposition should be used with caution due to the prevalence of screening artifacts. The top compound concentration tested was high (>100uM) in this assay, which increases number of actives and potential artifacts. An AlphaScreen counterscreen is highly recommended to be run against any putative actives to eliminate non-specific artifacts. Alternatively, one can use other AlphaScreen assays in PubChem to filter out promiscuous hits.
[1] Lee, J. et al. Distinct binding modes specify the recognition of methylated histone H3K4 and H4K20 by JMJD2A-tudor. Nat Struct Mol Biol. 15(1); 109-11. 2008. PMID: 18084306
[2] Yasgar, et al. Compound Management for Quantitative High-Throughput Screening. JALA. 2008 Apr;13(2):79-89. PMID: 18496600
[3] Inglese, et al. Quantitative high-throughput screening: a titration-based approach that efficiently identifies biological activities in large chemical libraries. Proc Natl Acad Sci. 1;103(31):11473-8. 2006. PMID: 16864780
[4] Quinn et al. A homogeneous method for investigation of methyl-dependent protein-protein interactions in epigenetics. Nucleic Acids Res., 38(2):e11. 2010. PMID: […]
[5] Baell,Holloway. New substructure filters for removal of pan assay interference compounds (PAINS) from screening libraries and for their exclusion in bioassays. J Med Chem. 53(7):2719-40. 2010. PMID: 20131845
NIH Molecular Libraries Probe Production Network [MLPCN]
NIH Chemical Genomics Center [NCGC]
Structural Genomics Consortium (SGC)
To each well of a 1,536w plate, 2ul of JMJD2A-Tudor (final 100nM) and 1ul biotinylated histone peptide methylated at Lys4 [b-H3(1-18)K4me3] (final 50nM) were added in 1x PBS buffer, pH 7.4, containing 0.01% Tween-20, using a nanoliter dispenser. Formation of a protein-peptide complex proceeded at room temperature for 30 min. A Kalypsys pin-tool transferred 23nl of library compound solution in DMSO to each well. Following a 30 min incubation of the protein-peptide complex with compounds at room temperature, a mixture of 40 µg/mL each streptavidin-coated donor and nickel chelate acceptor AlphaScreen beads (final 10 µg/mL) was added in a 1ul dispense for a final volume of 4ul, followed by a brief centrifugation (1000 rpm, 1 min). Plates were incubated protected from the light for 20 min at room temperature. Microplates were then read on an EnVision multilabel plate reader using the 1,536 plate HTS AlphaScreen aperture (excitation time 80 ms, measurement time 240 ms).
Potency is read from the fitted curve at half-maximal effect; tags tell the direction and shape of the fitted curve.

Chain of UniProt O75164 (O75164 whole entry, looked up, the tested form may be a part): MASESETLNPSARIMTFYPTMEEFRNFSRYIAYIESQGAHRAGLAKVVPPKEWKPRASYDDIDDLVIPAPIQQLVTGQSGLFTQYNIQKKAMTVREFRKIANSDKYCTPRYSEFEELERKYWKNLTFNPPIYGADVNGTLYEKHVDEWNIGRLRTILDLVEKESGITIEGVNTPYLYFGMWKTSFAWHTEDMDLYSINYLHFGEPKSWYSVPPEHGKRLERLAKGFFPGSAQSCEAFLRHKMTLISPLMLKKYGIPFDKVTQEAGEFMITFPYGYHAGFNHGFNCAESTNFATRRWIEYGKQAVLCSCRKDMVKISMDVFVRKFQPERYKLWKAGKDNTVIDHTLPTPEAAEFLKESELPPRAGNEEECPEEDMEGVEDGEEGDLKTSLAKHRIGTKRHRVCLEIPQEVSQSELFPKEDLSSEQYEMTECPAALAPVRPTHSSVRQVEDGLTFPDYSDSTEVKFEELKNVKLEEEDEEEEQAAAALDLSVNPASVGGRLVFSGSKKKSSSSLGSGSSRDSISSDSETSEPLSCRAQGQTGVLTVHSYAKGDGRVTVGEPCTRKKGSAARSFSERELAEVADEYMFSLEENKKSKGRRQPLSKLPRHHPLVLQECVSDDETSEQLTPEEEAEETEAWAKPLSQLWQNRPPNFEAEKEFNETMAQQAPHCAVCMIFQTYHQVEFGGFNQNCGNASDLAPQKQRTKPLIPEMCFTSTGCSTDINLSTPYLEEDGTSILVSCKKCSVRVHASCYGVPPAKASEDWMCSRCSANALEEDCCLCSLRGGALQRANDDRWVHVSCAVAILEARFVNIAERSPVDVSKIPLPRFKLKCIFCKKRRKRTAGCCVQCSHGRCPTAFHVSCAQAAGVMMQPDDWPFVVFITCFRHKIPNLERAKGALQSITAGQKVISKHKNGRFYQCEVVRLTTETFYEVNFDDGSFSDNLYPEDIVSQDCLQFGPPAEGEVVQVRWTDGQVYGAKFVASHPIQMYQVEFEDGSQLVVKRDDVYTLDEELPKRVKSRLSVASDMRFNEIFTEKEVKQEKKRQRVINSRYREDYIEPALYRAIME

Potency, inactive:
O=c1c2cccnc2n(-c2ccccc2)n1Cc1ccc(Cl)cc1
Fc1ccc(-c2csc(-c3nc(-c4ccc(Br)s4)cs3)n2)cc1
COCCNC(=O)c1nc2ccccc2s1
Cc1ccc(-n2ncc(C(=O)NCc3cccs3)c2C2CCN(C(=O)OC(C)(C)C)CC2)cc1C
Cc1nn(C(C)C(=O)NCCCN2CCCCC2C)c(=O)c2c1sc1ccccc12 (stereo unspecified)
O=C(c1cc2cc(F)ccc2[nH]1)N1CCc2ccccc2C1
COc1ccc(/C=N/OCC(=O)OCC(=O)N(C)c2ccccc2)cc1
O=C(CCN1C(=O)c2ccccc2C1=O)CN1CCOCC1
COc1ccc(Cl)cc1NC(=S)NCCc1ccc(F)cc1
COc1ccc(-c2cc(C(F)(F)F)nc(N3CCN(Cc4ccccc4)CC3)n2)cc1OC
c1cn(-c2ncnc3sc4c(c23)CCCC4)cn1
CC(=O)NN1C(=O)/C(=C\c2ccc(Br)o2)SC1=S

Potency, inconclusive:
COc1cccc(N=Nc2c(=O)[nH]n3c(=O)cc(C)[nH]c23)c1 44.7 µM [inhibitor, partial curve, poor fit]
Cc1cc2c(ncn2Cc2ccccc2)c(N)c1C 25.1 µM [inhibitor, single point]
CC(C)Oc1ccc(CCc2n[nH]c(=S)n2Cc2ccccc2)cc1 50.1 µM [inhibitor, partial curve]
CCOC(=O)c1c(C)[nH]c(C)c1C(=O)COC(=O)c1cc2ccccc2cc1O 50.1 µM [inhibitor, partial curve]
COc1ccc(-n2cc(CNCCCn3ccnc3)c(-c3ccccc3Cl)n2)cc1 44.7 µM [inhibitor, partial curve]
CC(C)c1ccc(C2CC(=O)N3CN(C)CSC3=C2C#N)cc1 (stereo unspecified) 56.2 µM [inhibitor, partial curve, poor fit]
CN(/N=C\c1ccc(O)c(O)c1)c1nc(-c2ccccc2)cc(-c2ccccc2)n1 44.7 µM [inhibitor, single point]
Cc1nn(Cc2ccccc2Cl)c(C)c1NC(=O)C1C2CCC(O2)C1C(=O)O (stereo unspecified) 39.8 µM [inhibitor, single point]
COc1ccc(N2CCN(c3cc(C)c4ccccc4n3)CC2)cc1 17.8 µM [inhibitor, partial curve]
COc1ccc(C(CNC(=O)c2cc(S(=O)(=O)N3CCN(c4ccccc4)CC3)ccc2Cl)N(C)C)cc1 (stereo unspecified) 50.1 µM [inhibitor, partial curve]
COc1ccc(/C=N/NC2=NS(=O)(=O)c3ccccc32)cc1OC(C)=O 28.2 µM [inhibitor, partial curve]
CCOC(=O)c1c(C)oc2c1c(C=NCCO)c(O)c1ccccc12 44.7 µM [inhibitor, partial curve]
CCOC(=O)C1=C(C)N(CC(C)C)C(=O)/C1=C\c1cccs1 12.6 µM [inhibitor, full curve]
CCOC(=O)c1oc2c(O)c(O)ccc2c(=O)c1-c1nncn1-c1ccccc1 1.78 µM [inhibitor, full curve, poor fit]
COc1ccc(-c2nn(CCC(=O)O)cc2/C=C2\SC(N)=NC2=O)cc1 70.8 µM [inhibitor, single point]
CCCCOc1ccc(C(=O)NCC(=O)NC2CCC(C)CC2)cc1 (stereo unspecified) 89.1 µM [inhibitor, partial curve]
Fc1ccc2c(c1)Sc1ccc(Cl)cc1CC2N1CCN(CCC2OCCO2)CC1 (stereo unspecified) 11.2 µM [inhibitor, full curve, poor fit]
Cc1nc2ccccc2n1S(=O)(=O)c1ccc(S(=O)(=O)N2CCCCCC2)cc1 89.1 µM [inhibitor, partial curve]
CC(=O)Nc1ccc(S(=O)(=O)Nc2cc(C)c(-n3nc4ccccc4n3)cc2O)cc1 39.8 µM [inhibitor, partial curve, poor fit]
Cc1cccc(NC(=O)c2ccc(-c3ccccc3[N+](=O)[O-])o2)c1 56.2 µM [inhibitor, partial curve, poor fit]
CCCN(CCC)CC(O)Cn1cc(/C=C/C(=O)c2cccs2)c2ccccc21 (stereo unspecified) 89.1 µM [inhibitor, single point]
Cc1[nH][nH]c(=O)c1C(c1ccc(-c2ccc(Cl)cc2)o1)c1c(C)[nH][nH]c1=O 79.4 µM [inhibitor, partial curve]

Potency, active:
COc1ccc(/C=C(\NC(=O)c2ccccc2)C(=O)OC[C@@H]2CCC[N+]3(C)CCCCC23)cc1OC (stereo partly specified) 15.8 µM
O=C(/C=C/c1ccco1)N1CCC(Cc2ccccc2)CC1 50.1 µM
CCOc1ccc(N2C(=O)/C(=C/c3ccc(C)o3)N(C)C2=S)cc1 35.5 µM
O=C(CNCc1ccc(Cl)cc1)Nc1ccc2c(c1)OCCO2 17.8 µM
S=c1[nH]nc(Cc2noc3ccccc23)n1-c1ccccc1 11.2 µM
COc1ccc2[nH]c3c(c2c1)CCN1C(=O)C(CC(=O)NCC24CC5CC(CC(C5)C2)C4)C[C@H](C(=O)N2CCOCC2)[C@@]31CCC1CCCC1 (stereo partly specified) 39.8 µM
COc1ccc(C(=O)/C(=C/c2cccs2)c2nc3ccccc3o2)cc1 44.7 µM
Cc1ccc(OCC(O)CN2CC3(C)CC2CC(C)(C)C3)cc1 (stereo unspecified) 1.12 µM
Cc1cc2ccccn2c1C(=O)c1ccc(NN)c([N+](=O)[O-])c1 39.8 µM
N#CC(C#N)=c1ccc2c(c1)NC1(CCCCC1)N=2 22.4 µM
C(=N\N1CCN(Cc2cccc3ccccc23)CC1)/c1ccco1 56.2 µM
COc1ccc(N2CCN(C(c3ccccc3)c3nnc(-c4ccccc4Cl)o3)CC2)cc1 (stereo unspecified) 50.1 µM
